# Measurements taken from the RNAGym collection of RNA variant scans (doi:10.1073/pnas.2313332121).
# This sample is rich in variants without activity.
# B1: TPR 5TU (parent)
# chain: GGAUCUUCUCGAUCUAACAAAAAAGACAAAUCUGCCACAAAGCUUGAGAGCAUCUUCGGAUGCAGAGGCGGCAGCCUUCGGUGGCGCGAUAGCGCCAACGUUCUCAACUAUGACACGCAAAACGCGUGCUCCGUUGAAUGGAGUUUAUCAUG
# Variants of: B1
# Assay: polymerase ribozyme fitness, log enrichment relative to wild type (log ratio); higher = more active; in vitro selection for triplet polymerase activity
# Summary of the method: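 Each subunit of a heterodimeric triplet polymerase ribozyme was represented by a PCR-built, transcribed mutant library that underwent triplicate single-round in vitro selection with frozen incubation at −7 °C. Extended constructs were recovered by gel excision, streptavidin-bead capture and RT-PCR, and Illumina sequencing of input and output libraries kept genotypes with ≥10 input reads and ≥1 read per output. Fitness is the logarithm of genotype enrichment relative to wild-type enrichment, from inverse-variance-weighted replicate averages, with a logarithm base of 2.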
row,Variant,polymerase ribozyme fitness (log ratio)
1,A21G U61G U90A A91U A115G,≤ -4.2
2,A20G G58A C69U G71A A110G C129A U135A U148C,≤ -4.2
3,A21U A24U G70C G92U G143U A150U,≤ -4.2
4,A20G A24G C51U C85U A120U C149G,≤ -4.2
5,A20U A21U G48A U56A C63A G94C U111G G128A U148C,≤ -4.2
6,A20U A23U U55G U61A A66C C118U,≤ -4.2
7,A21G G25U A64U G92U,≤ -4.2
8,A21G G94A,-1.01
9,A20C C43G G83A,≤ -4.2
10,A20G A91G G124C G143C,≤ -4.2
11,A20U A24G A29C C38G G80C A89G C105U C116G,≤ -4.2
12,A20U C27U A41G U82A C93G A137C G141A,≤ -4.2
13,A21G G50C A52C C79U C118U,≤ -4.2
14,A20U A52U C76A C93A,≤ -4.2
15,A21C G25A U127G,≤ -4.2
16,A20U C54U C85A C114U C116G,≤ -4.2
17,A21U G25U G84A C93G U127A U135C,≤ -4.2
18,A21C C38A U55A A91G C93U U109G,≤ -4.2
19,A20C U44G A52G C57U C85A A89G U139C,≤ -4.2
20,A20C U31G A40U,-0.279
21,A20C A29U A47U U77C C93G A120U G133A A142G,≤ -4.2

row,Variant,polymerase ribozyme fitness (log ratio)
1,A21U A26G G71A C125U,≤ -4.2
2,A21C U53A C72U C76G C87U A120C,≤ -4.2
3,A21C C87G,-3.89
4,A21C U55A C96U,-0.915
5,A21C A29G A30U A40U U45G C96G,≤ -4.2
6,A20C C87A G100A,≤ -4.2
7,A21G A52C G83U G84A U90C C95G G100A C103G A107U U139G,≤ -4.2
8,A21U A113U A137G U144A,-3.99
9,A21C U53A C87G,≤ -4.2
10,A20C G94C C99G G128U,≤ -4.2
11,A21G C99U,0.465
12,A20U G50A G88C C129A,≤ -4.2
13,A21C A52U U82A C85G C116U,≤ -4.2
14,A21G A49C G81A G141A,≤ -4.2
15,A20U C32G C96G A120U,≤ -4.2
16,A21C U77G A91C,≤ -4.2
17,A20G C57G A66C G94A C132U,≤ -4.2
18,A20C U53A U55A,-2.52
19,A21C C35U U44A U53A U101G,≤ -4.2
20,A20U A24C G67C,≤ -4.2
21,A21C C27A A41C C69G A73C G81A C85G C123A A137G A142C,≤ -4.2

row,Variant,polymerase ribozyme fitness (log ratio)
1,A20G A52C G67A C87U C131U G141C,≤ -4.2
2,A21G C36U A52U C116U A120U U144C,-3.59
3,A21U A37G C75U C87U,≤ -4.2
4,A20C G48C C75G G83A C118A C131A,≤ -4.2
5,A20U A47C C57U U77G C96G U130G,≤ -4.2
6,A21G C76A G86U C93G U101C A122G,-0.0234
7,A20U G42A U61A C85U,≤ -4.2
8,A21G C27U A52C C93G A110U G152U,≤ -4.2
9,A20U A40C U55A A73U,-3.94
10,A20G C63U G65U G83A C149A,≤ -4.2
11,A21U C69U A91U U127A G141A C149A,≤ -4.2
12,A20U A23C C79U G94C C95U U148A,≤ -4.2
13,A20C A47C G50C G84A C93A U111G,≤ -4.2
14,A20U A22C A41C C54U C85U G88A C99U C114U,≤ -4.2
15,A21G A23U G67C G84U U144G,≤ -4.2
16,A21C C93A U104A G141C U144G G152A,≤ -4.2
17,A21G A49U G50A,-0.423
18,A21G G88U A97G C103G U144A,≤ -4.2
19,A20U A26G G42A C76U G83U,≤ -4.2
20,A20U G58A C96U U111G G124A U148A,≤ -4.2
21,A21G C85G U102G,≤ -4.2

row,Variant,polymerase ribozyme fitness (log ratio)
1,A20U U56A G80U C93A G100U G124C G136C,≤ -4.2
2,A21U A29U G42A C96U A120G G136C,≤ -4.2
3,A21C U61C C75A A91G A97G C99A A106U U144G,≤ -4.2
4,A20U A41U C114U G126A U135G U146C,≤ -4.2
5,A20C C43U G46U C69U C85U G86U A89G,≤ -4.2
6,A21U G25C A29U U33A A37U A66C G70C G88U G124U,≤ -4.2
7,A21C C57A C85G U130G,-4
8,A20C A60C C85A,-2.66
9,A20C C35U C54A C75G A89C G133U,≤ -4.2
10,A20U A52C,-2.87
11,A20C C43U C93G G141A,≤ -4.2
12,A21C A28G A73G C85A,≤ -4.2
13,A21G A23G C38G A39C U55A G59A G80A C93U U102G U111G A150G,≤ -4.2
14,A21G A41G C93A C132A,-3.75
15,A20G A21U A26U A29U A39C A91G G94U A97G C99A C131A A142G,≤ -4.2
16,A20G A30C U77C C85U A120G A150U,≤ -4.2
17,A21C G25U G88A C96U,≤ -4.2
18,A20U C57G C93U C123U,-2.57
19,A21C C27G U53G G58C C76A A91G U148G,≤ -4.2
20,A21C G112A A142C G143A,≤ -4.2
